Results taken from ChEMBL document CHEMBL4888484, “Replenishing the malaria drug discovery pipeline: Screening and hit evaluation of the MMV Hit Generation Library 1 (HGL1) against asexual blood stage Plasmodium falciparum ,using a nano luciferase reporter read-out” (2022).
The whole screen tested about 150,000 compounds, of which about 540 (0.36%) showed an effect of 50% or more. The list shows a part of the results.

tested on: Plasmodium falciparum; assay: Primary screen in NF54 nanoGlo assay, in single point, at 2uM, 72h; a lower Z score goes with more inhibition; format: functional, Erythrocyte; conditions: timepoint 72 hour

SMILES | % Inhibition [%] | Z score
COc1ccc(CCNC(=O)c2c(C)noc2-c2ccncc2)cc1 | -5 | 0.48
Cc1cc(C)n(Cc2nc(CC(=O)Nc3ccccn3)no2)n1 | -6 | 1.1
Cc1ccc(C)c(OCC(=O)Nc2cc(S(=O)(=O)N3CCCC3)ccc2OCC(F)(F)F)c1 | 3 | -0.56
CC1CN(Cc2cnn(Cc3ccccc3)c2)CC2(CCOC2)O1 (stereo not drawn) | 1 | -0.11
COc1cc(OC)c(OC)cc1CN1CCC[C@H]1c1cc(C(C)C)no1 | -18 | 2.4
CC(C)CNC(=O)CNC(=O)Nc1ccc(Br)cc1 | -9 | 0.79
COCC(=O)NCc1nccc(N2CCCC2)n1 | -11 | 1.71
COc1cc(Oc2ccc(C(C)C)nn2)ccc1CN1CCCC1 | -23 | 2.93
CC1CN(Cc2ccccc2)CC1NC(=O)N(C)CC1CCCOC1 (stereo not drawn) | -1 | 0.07
COc1cc2c(cc1Cl)CN(Cc1cn(C(C)C)nn1)CC2 | -2 | 0.43
Cn1cncc1CC(=O)Nc1cccc2c1OC(C)(C)CC2 | -5 | 0.66
CCC(=O)N(C1CCOCC1)C1CCN(Cc2cc(F)c(F)c(F)c2)CC1 | 1 | -0.19
O=C(OCc1ccccc1)N1CCN(c2nc3ccccc3c3nnc(C4CC4)n23)CC1 | 1 | -0.18
CC(C)c1nccn1CCc1cnn(-c2ccccc2)c1 | -16 | 1.92
O=C(Cc1ccsc1)NC(c1ccccn1)[C@H]1C[C@@H](O)C1 (stereo partly drawn) | -3 | 0.4
O=C(Nc1ccc(F)cc1F)OCC(F)(F)F | -5 | 0.64
O=S(=O)(Cc1ccccc1)N1CCC(OCCOc2ccc(F)cc2)CC1 | 42 | -6.01
Cc1nc(NC(=O)[C@H](C)N(C)c2ccn(C)n2)sc1C | -4 | 0.68
C[C@H]1CCCN(CC2CCN(S(=O)(=O)Cc3ccccc3)CC2)C1 | -5 | 0.73
CN1C(=O)C[C@H](NC(=O)Cc2cccc(O)c2)[C@H]1c1cccnc1 | -7 | 1.34
Cc1nc(-c2ccccc2NC(=O)c2cccc(Cl)c2)cs1 | -16 | 3.23

SMILES | % Inhibition [%] | Z score
CC(C)n1cnnc1CN(C)C(=O)c1cccc(-c2ccccc2CO)c1 | -3 | 0.57
Cc1ccc2nc(N3CCC(C(=O)N4CCN(C(=O)c5ccco5)CC4)CC3)[nH]c2c1 | 11 | -1.89
COc1cccc(N2CCN(C(=O)[C@H]3CC(C)(C)OC3(C)C)CC2)c1 | -2 | 0.46
O=C(NCc1ccco1)c1cccc(Nc2c(Oc3ccccc3)cnn(-c3ccc(Cl)cc3)c2=O)c1 | -9 | 1.09
COCc1cc(CN2CCC[C@](C)(OC)C2)no1 | -4 | 0.7
CC(C)c1cc(-c2nc(-c3cn4ccccc4n3)no2)on1 | -3 | 0.46
Cc1cn2c(-c3nc(CC(C)C)n[nH]3)csc2n1 | -4 | 0.69
COc1ccccc1[C@H](CNc1ncnc2sccc12)N1CCCC1 | -4 | 0.48
O=S1(=O)N=C(N[C@H]2CCN(CC3CC3)C2)c2ccccc21 | -10 | 1.42
COCc1cccc(CC(=O)N2CCOc3cccc(F)c32)c1 | -9 | 1.09
CC(=O)N1CCN(CC(=O)N2N=C(c3ccc(C)cc3)C[C@H]2c2cccc(F)c2)CC1 | -6 | 1.08
CC(C)[C@H]1CN(Cc2cc(C(N)=O)oc2C(C)(C)C)C[C@@H]1NC(=O)N(C)C | -3 | 0.45
CN(C[C@](C)(O)c1ccccc1)C(=O)c1cc2c(o1)CCCC2 | 10 | -1.32
CC(C)(C)CN(CC(F)(F)F)C(=O)CN1C(=O)NC(C)(C)C1=O | -8 | 1.49
Cc1cnc(C(=O)OC2CC3CC(C2C)C3(C)C)cn1 (stereo not drawn) | -2 | 0.17
CN(C(=O)OC(C)(C)C)c1cccc(C#N)c1 | -7 | 0.85
O[C@H]1CC[C@@H]1Nc1ncc(Cl)cc1F | 2 | -0.31
Cc1ccc2nc(C[C@H]3CN(C(=O)C(C)(C)C)CC[C@H]3CC(=O)O)[nH]c2c1 | 28 | -3.12
Cc1ccc(NC(=O)CN2C(=O)CCCc3cc(S(=O)(=O)N4CCOCC4)ccc32)cc1F | -9 | 1.2
CCc1nc([C@@H]2CCCN2Cc2c(C)noc2C)no1 | -7 | 0.89
COCCN1CCN(C(C)CC#N)CC1C (stereo not drawn) | 11 | -1.45

SMILES | % Inhibition [%] | Z score
CCc1cnc(CN(C)Cc2sncc2Br)s1 | 8 | -0.78
C[C@@H](c1ccccn1)N(C)CCC(=O)N1CCc2ccccc2C1 | 5 | -0.69
CC1=NN(c2ccc(Cl)cc2)C(=O)C12Cc1ccc(Cl)cc1N1CCN(Cc3ccccc3)CC12 (stereo not drawn) | -30 | 3.55
Cn1c(CN2CCOCC2)nnc1C1CCN(c2ncccc2F)CC1 | -5 | 0.99
O=C([C@H]1C[C@@H](c2ccccc2)N2CCC[C@H]12)N1CCC(F)(F)CC1 | -10 | 1.9
C=Cn1cc[n+](CC(=O)c2ccc(Cl)c(Cl)c2)c1 | -10 | 1.78
CCOCCCNC(=O)c1cnn(C)c1C | -8 | 0.88
CN(CCc1ccccn1)Cc1cnccn1 | -16 | 2.29
N#Cc1ccc(NCCNC(=O)NC2CCCC2)nc1 | 1 | -0.2
CC(C)NC(=O)N[C@@H]1CC[C@H]2CCOc3ccccc3C(=O)N3CCN(C4CCCCC4)C[C@H]3C(=O)NC[C@H]1O2 | -11 | 2.03
O=C(Nc1ccccc1)c1nnc(C(=O)N2CCC(CC(=O)N3CCCCCC3)CC2)s1 | 0 | 0
COc1ccc2c(c1)N(CC1=CCCOC1)C[C@H](C)O2 | -12 | 1.91
Cn1ccnc1[C@@H](NC1CCOCC1)C1CC1 | 1 | -0.25
COc1ccncc1NCc1ccc(C(=O)OC(C)(C)C)cc1 | 31 | -3.52
CCOC(=O)N1CCN(C(=O)c2ccc(NCc3ccc(OC)cc3)c(S(=O)(=O)Nc3cccc(C(F)(F)F)c3)c2)CC1 | -5 | 0.6
CCN1CCN(C(=O)Cn2c(-c3cccs3)cc3ccccc32)CC1 | 8 | -1
CCn1c(CN[C@@H](C)c2ccc(Cl)cc2)nc2cc(S(=O)(=O)N3CCCCC3)ccc21 | 9 | -1.15
CCC1(CC)CCN(C(=O)N[C@H]2CCn3ccnc32)C1 | 2 | -0.33
CN1CCCN(c2nc3ccccc3nc2NS(=O)(=O)c2ccccc2C(F)(F)F)CC1 | -6 | 0.89
CC(C)[C@H](NC(=O)Nc1ccc2c(c1)OCO2)c1cccs1 | -2 | 0.36
CC1CCN(c2ncc(F)c(N)n2)CC1 | 28 | -3.22

SMILES | % Inhibition [%] | Z score
CCc1ccc(-n2ncc(-c3cc(C(=O)NCc4ccccc4)c4ccccc4n3)c2C)cc1 | -9 | 1.15
O=C(C1CCCC1)N1CC(S(=O)(=O)N2CCC[C@H](n3cncn3)C2)C1 | -11 | 1.41
Cc1cccc(N2C(=O)c3ccc(NC(=O)COc4ccccc4Cl)cc3C2=O)c1C | 7 | -0.97
Fc1ccc(CNc2ccc3nccnc3n2)c(F)c1 | -3 | 0.61
CCC1(CC)CCN(C(=O)c2cc3ncccn3n2)C1 | -12 | 1.53
CC[C@H]1C(=O)NCCN1C(=O)c1cc(C2CC2)on1 | -9 | 1.14
COc1ccccc1C(=O)Nc1ccc2c(c1)nc(CN1CCN(C)CC1)n2C(C)C | -14 | 1.22
Cn1cc(CNC(=O)[C@@H]2CCCN(CC(F)(F)F)C2=O)nn1 | -18 | 1.98
O=S(=O)(c1ccccc1)N1CCN(Cc2nc3cc(Cl)ccc3o2)CC1 | -14 | 1.2
CCN(CC)c1ccc(NS(=O)(=O)c2cc(C(=O)N3CCC(C)CC3)n(C)c2C)c(C)c1 | -11 | 2.23
NC(=O)c1ccc(-c2noc(CC3CCCC3)n2)cc1 | -6 | 0.49
Cc1ccc(NS(=O)(=O)c2cc(N(C)S(=O)(=O)c3ccccc3)c(C)cc2C)c(C)c1 | -1 | 0.21
COc1ccc(Nc2nc(COC(=O)Cn3cnc4c3c(=O)n(C)c(=O)n4C)cs2)cc1 | -6 | 0.88
c1ccc(N2CC[C@H](CNc3nccn4cnnc34)C2)cc1 | -7 | 0.8
Cc1c[nH]c(CN2CCNC(=O)C23CCCC3)n1 | -8 | 1.53
CN(C(=O)OC(C)(C)C)[C@H]1CCCC[C@@H]1O | -3 | 0.28
Cc1cccc(N(C)S(=O)(=O)c2ccsc2-c2nc(-c3ccc(F)cc3)no2)c1 | -14 | 1.96
O=C1C[C@H](c2cc(Cl)ccc2Cl)c2sc(N3CCCC3)nc2CN1 | -3 | 0.58
CC(NC(=O)C1CCOC1)c1cn[nH]c1 (stereo not drawn) | -8 | 1.13
Cc1ccc(C)c(C(=O)N(C)Cc2snnc2C)c1 | -4 | 0.55
O=C1c2ccccc2C(c2ccc(NC(=O)c3cccc4ccccc34)cc2)(c2ccc(NC(=O)c3cccc4ccccc34)cc2)c2ccccc21 | 95 | -13.49
